Assay results as given in patent US5458889A (priority 1986, dated 1995).
Several values for one entry are separate records, joined by “and”; a condition that tells them apart may be missing. Equal entries are not always repeated. Where two headings read alike, the source gives them in different places.

Assays:
Chlamydia = assay: MIC on Chlamydia (Tests 7 and 8); assay type: cell-based
Procedure: Inoculum: it is constituted by the host-cells of chlamydia or Mac Coy cells. They are preserved at
80° C. The cellular concentration is from 2 to […] cells/ml for the tests. The cellular layer is prepared in a complete culture medium.
The substances to be tested are diluted with an increasing range which geometrical ratio is 2 in bidistilled sterile water.
1 ml of dilution of the substances to be tested is mixed with 1 ml of cellular suspension (Mac Coy cells). then incubated 1 hour and 24 hours at 37° C. in stove. 0.2 ml of this admixture is then placed in the plates of the wells. The plates are centrifugated (1 hour at 2000 rpm) and incubated 1 hour at 37° C. The culture medium is then replaced with 0.2 ml of new medium containing 0.5 mg1 of cycloheximide and the plates are then incubated 48 hours at 37° C. The cellular layer is then fixed with methanol and overall couloured with a monoclonal antibody and conjugate with FITC (fluorescein isothiocyanate). Then the inclusions present in the Mac Coy cells are observed with an inversed epifluorescence microscope.
Therefore, the toxicity of the substances to be tested was first tested, and was taken into account for totally respecting the integrity of the host-cell.

Pseudomonas Aeruginosa = assay type: cell-based
Trichomonas [1] = test system: Trichomonas
Gonococcus [2] = test system: Gonococcus
[3] = test system: Staphylococcus Aureus Oxford origin CNCM 53 154; conditions: pH 7.2
[4] = test system: Streptococcus faecalis CNCM 5 855; conditions: pH 7.2
[5] = test system: Escherichia coli CNCM 54 127; conditions: pH 7.2
[6] = test system: Pseudomonas aeruginosa CNCM A 22; conditions: pH 7.2
[7] = test system: Mycobacterium smegmatis CNCM 7 326; conditions: pH 7.2
Trichomonas [8] = test system: Trichomonas; remark: listed apart in the source
Gonococcus [9] = test system: Gonococcus; remark: listed apart in the source

Benzalkonium fluoride was tested, and the “Minimal inhibiting concentration (MIC)” value (Ducrey's Bacillus) was 75 µg/mL, the “Minimal inhibiting concentration (MIC)” value (Chlamydia) was 100 µg/mL and the “Minimal inhibiting concentration (MIC)” value (Treponema) was 70 µg/mL. For the same substance, the “Minimal inhibiting concentration (MIC)” value (Streptococcus) was 15 µg/mL, the “Minimal inhibiting concentration (MIC)” value (Pseudomonas Aeruginosa) was 31.25 µg/mL and the “Minimal inhibiting concentration (MIC)” value (Candidas Albicans) was 50 µg/mL. For the same substance, the “Minimal inhibiting concentration (MIC)” value (Trichomonas [1]) was 1.3 µg/mL, the “Minimal inhibiting concentration (MIC)” value (Gardnerella) was 50 µg/mL and the “Minimal inhibiting concentration (MIC)” value (Staphylococcus Aureus) was 1.56 µg/mL. For the same substance, the “Minimal inhibiting concentration (MIC)” value (Gonococcus [2]) was 1.15 µg/mL.
With nonoxynol 9 the “Minimal inhibiting concentration (MIC)” value (Treponema) was 75 µg/mL, the “Minimal inhibiting concentration (MIC)” value [3] was 4 µg/mL and the “Minimal inhibiting concentration (MIC)” value (Streptococcus) was 20 µg/mL. For the same substance, the “Minimal inhibiting concentration (MIC)” value [4] was 7 µg/mL, the “Minimal inhibiting concentration (MIC)” value [5] was 8 µg/mL and the “Minimal inhibiting concentration (MIC)” value (Pseudomonas Aeruginosa) was 50 µg/mL. For the same substance, the “Minimal inhibiting concentration (MIC)” value [6] was 50 µg/mL, the “Minimal inhibiting concentration (MIC)” value (Staphylococcus Aureus) was 4 µg/mL and the “Minimal inhibiting concentration (MIC)” value [7] was 65 µg/mL.
In the case of Benzalkonium chloride, the “Minimal inhibiting concentration (MIC)” value (Trichomonas [8]) was 11.80 µg/mL and 15.60 µg/mL, the “Minimal inhibiting concentration (MIC)” value [3] was 1.56 µg/mL and the “Minimal inhibiting concentration (MIC)” value (Gonococcus [9]) was 23.65 µg/mL and 15.62 µg/mL. The “Minimal inhibiting concentration (MIC)” value [4] was 4 µg/mL, the “Minimal inhibiting concentration (MIC)” value [5] was 6.57 µg/mL and the “Minimal inhibiting concentration (MIC)” value [6] was 31.25 µg/mL. The “Minimal inhibiting concentration (MIC)” value [7] was 30 µg/mL.
